Measurements as given in paper PMC12077520, “Interaction networks of SIM-binding groove mutants reveal alternate modes of SUMO binding and profound impact on SUMO conjugation” (Science Advances, 2025).
Positions count from the first letter of the chain named.

B1: His10-SUMO2 WT (natural protein)
chain: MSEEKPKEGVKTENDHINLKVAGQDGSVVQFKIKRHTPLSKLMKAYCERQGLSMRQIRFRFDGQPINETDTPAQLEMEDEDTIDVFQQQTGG
notes: […]; gene synthesised (GenScript), cloned into pET-11a; also called 10xHis-tagged SUMO2; source: E. coli Rosetta, purified (gravity-flow Ni-NTA)
B2: His10-SUMO2 ∆D84-G92 (domain or fragment)
chain: not shown
notes: gene synthesised (GenScript); source: E. coli Rosetta, purified (gravity-flow Ni-NTA)

Experiments:
GST-SEC13 = biological target: T1, GST-SEC13 (human, UniProt P55735 1-322); test: pull-down; GST-SEC13 or GST-SEH1L from bacterial lysate held on Glutathione Sepharose beads and washed; recombinant His10-SUMO2 added 2 h at 4°C in 50 mM tris pH 7.5, 150 mM NaCl, 0.5% NP40, 5 mM imidazole, BSA 0.1 mg/ml; five washes; SUMO2/3 immunoblot; details: both partners purified
T1 construct: SEC13, human ORF from pDONR223 (Sigma-Aldrich MISSION TRC3 Human ORF Collection), stop codon introduced, cloned into pDEST15; also called GST-SEC13 WT; SEC13 WT
T1 sequence (looked up): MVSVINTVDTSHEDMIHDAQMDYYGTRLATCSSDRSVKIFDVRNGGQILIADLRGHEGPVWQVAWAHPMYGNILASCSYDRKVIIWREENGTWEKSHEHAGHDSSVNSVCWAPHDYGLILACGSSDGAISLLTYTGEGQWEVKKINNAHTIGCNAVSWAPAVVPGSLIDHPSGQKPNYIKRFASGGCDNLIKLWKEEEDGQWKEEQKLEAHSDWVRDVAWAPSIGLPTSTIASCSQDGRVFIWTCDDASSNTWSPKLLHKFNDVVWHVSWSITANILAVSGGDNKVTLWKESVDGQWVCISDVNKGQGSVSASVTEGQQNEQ

[1] = biological target: T2, GST-SEC13 P59A-Y79A-I151A-R216A-Q236A (human, UniProt P55735 1-322, P59A | Y79A | I151A | R216A | Q236A); test: as above; details: both partners purified
T2 construct: SEC13 mutant, synthesised in pDONR207 (GenScript), cloned into pDEST15; also called SEC13 P59A-Y79A-I151A-R216A-Q236A mutant
T2 sequence (looked up): T1 sequence (looked up) with P59A, Y79A, I151A, R216A, Q236A

| Binder | binding result (GST-SEC13) | binding result [1] |
| --- | --- | --- |
| B1 | binds | binds |
| B2 | binds |  |
